# According to the supplement of paper PMC8728848:
# This is one part of the list.
# B1: Gal 1 (Mus musculus), P16045 (protein)
# chain: MACGLVASNLNLKPGECLKVRGEVASDAKSFVLNLGKDSNNLCLHFNPRFNAHGDANTIVCNTKEDGTWGTEHREPAFPFQPGSITEVCITFDQADLTIKLPDGHEFKFPNRLNMEAINYMAADGDFKIKCVAFE
# Experiments:
# Assay in all cases: glycan array binding signal (z-score within array); higher = stronger binding
# Details in all cases: glycan notation: IUPAC condensed, linker removed
# Gal3S(b1-4)Glc6S = biological target: Gal3S(b1-4)Glc6S
# Procedure, shortened: (§1)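 Glycan array data came from 3228 arrays in the Consortium for Functional Glycomics database, and only arrays with an available protein sequence were kept. Glycan names were put into IUPAC-condensed notation, and columns mapping to the same glycan were averaged. The binding signal is a within-array Z-score, averaged across arrays of one protein sequence run at different concentrations or buffers and across linkers. A negative Z-score can be read as non-binding.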
# Gal3S(b1-4)GlcNAc = biological target: Gal3S(b1-4)GlcNAc
# Procedure, shortened: as §1
# Gal3S(b1-4)GlcNAc6S = biological target: Gal3S(b1-4)GlcNAc6S
# Procedure, shortened: as §1
# [1] = biological target: Gal3S(b1-4)[Fuc(a1-3)]Glc
# Procedure, shortened: as §1
# [2] = biological target: Gal3S(b1-4)[Fuc(a1-3)]Glc6S
# Procedure, shortened: as §1
# [3] = biological target: Gal3S(b1-4)[Fuc(a1-3)]GlcNAc
# Procedure, shortened: as §1
# [4] = biological target: Gal3S(b1-4)[Fuc(a1-3)]GlcNAc6S
# Procedure, shortened: as §1
# Gal3S4S(b1-4)GlcNAc = biological target: Gal3S4S(b1-4)GlcNAc
# Procedure, shortened: as §1
# Gal3S6S(b1-4)GlcNAc = biological target: Gal3S6S(b1-4)GlcNAc
# Procedure, shortened: as §1
# Gal3S6S(b1-4)GlcNAc6S = biological target: Gal3S6S(b1-4)GlcNAc6S
# Procedure, shortened: as §1
# Gal4S(b1-4)GlcNAc = biological target: Gal4S(b1-4)GlcNAc
# Procedure, shortened: as §1
# Gal4S6S(b1-4)GlcNAc = biological target: Gal4S6S(b1-4)GlcNAc
# Procedure, shortened: as §1
# Gal6P(b1-4)GlcNAc = biological target: Gal6P(b1-4)GlcNAc
# Procedure, shortened: as §1
# Gal6S(b1-3)GlcNAc = biological target: Gal6S(b1-3)GlcNAc
# Procedure, shortened: as §1
# Gal6S(b1-3)GlcNAc6S = biological target: Gal6S(b1-3)GlcNAc6S
# Procedure, shortened: as §1
# Gal6S(b1-4)Glc = biological target: Gal6S(b1-4)Glc
# Procedure, shortened: as §1
# Gal6S(b1-4)Glc6S = biological target: Gal6S(b1-4)Glc6S
# Procedure, shortened: as §1
# Gal6S(b1-4)GlcNAc = biological target: Gal6S(b1-4)GlcNAc
# Procedure, shortened: as §1
# Gal6S(b1-4)GlcNAc6S = biological target: Gal6S(b1-4)GlcNAc6S
# Procedure, shortened: as §1
# GalNAc(a1-3)Gal = biological target: GalNAc(a1-3)Gal
# Procedure, shortened: as §1
# GalNAc(a1-3)GalNAc = biological target: GalNAc(a1-3)GalNAc
# Procedure, shortened: as §1
# [5] = biological target: GalNAc(a1-3)GalNAc(a1-3)Gal(a1-4)Gal(b1-4)GlcNAc
# Procedure, shortened: as §1
# [6] = biological target: GalNAc(a1-3)GalNAc(b1-3)Gal(a1-4)Gal(b1-4)Glc
# Procedure, shortened: as §1
# [7] = biological target: GalNAc(a1-3)GalNAc(b1-3)Gal(a1-4)Gal(b1-4)GlcNAc
# Procedure, shortened: as §1
# GalNAc(b1-3)Gal = biological target: GalNAc(b1-3)Gal
# Procedure, shortened: as §1
# [8] = biological target: GalNAc(b1-3)Gal(a1-4)Gal(b1-4)GlcNAc
# Procedure, shortened: as §1
# [9] = biological target: GalNAc(b1-3)Gal(a1-4)Gal(b1-4)GlcNAc(b1-3)Gal(b1-4)Glc
# Procedure, shortened: as §1
# [10] = biological target: GalNAc(b1-3)Gal(a1-6)Gal(b1-4)Glc
# Procedure, shortened: as §1
# GalNAc(b1-3)GalNAc = biological target: GalNAc(b1-3)GalNAc
# Procedure, shortened: as §1
# GalNAc(b1-3)GlcNAc = biological target: GalNAc(b1-3)GlcNAc
# Procedure, shortened: as §1
# GalNAc(b1-4)Gal(b1-4)Glc = biological target: GalNAc(b1-4)Gal(b1-4)Glc
# Procedure, shortened: as §1
# GalNAc(b1-4)GlcNAc = biological target: GalNAc(b1-4)GlcNAc
# Procedure, shortened: as §1
# [11] = biological target: GalNAc(b1-4)GlcNAc(b1-2)Man
# Procedure, shortened: as §1
# [12] = biological target: GalNAc(b1-4)GlcNAc(b1-2)Man(a1-3)[GalNAc(b1-4)GlcNAc(b1-2)Man(a1-6)]Man(b1-4)GlcNAc(b1-4)GlcNAc
# Procedure, shortened: as §1
# [13] = biological target: GalNAc(b1-4)GlcNAc(b1-3)GalNAc(b1-4)GlcNAc
# Procedure, shortened: as §1
# GalNAc(b1-4)GlcNAc6S = biological target: GalNAc(b1-4)GlcNAc6S
# Procedure, shortened: as §1
# GalNAc(b1-6)GalNAc = biological target: GalNAc(b1-6)GalNAc
# Procedure, shortened: as §1
# GalNAc3S(b1-4)GlcNAc = biological target: GalNAc3S(b1-4)GlcNAc
# Procedure, shortened: as §1
# GalNAc3S(b1-4)GlcNAc3S = biological target: GalNAc3S(b1-4)GlcNAc3S
# Procedure, shortened: as §1
# [14] = biological target: GalNAc3S(b1-4)[Fuc(a1-3)]GlcNAc
# Procedure, shortened: as §1
# GalNAc4S6S(b1-4)GlcNAc = biological target: GalNAc4S6S(b1-4)GlcNAc
# Procedure, shortened: as §1
# GalNAc6S(b1-4)GlcNAc = biological target: GalNAc6S(b1-4)GlcNAc
# Procedure, shortened: as §1
# Glc(a1-4)Glc = biological target: Glc(a1-4)Glc
# Procedure, shortened: as §1
# [15] = biological target: Glc(a1-4)Glc(a1-4)Glc(a1-4)Glc
# Procedure, shortened: as §1
# Glc(a1-6)Glc(a1-6)Glc = biological target: Glc(a1-6)Glc(a1-6)Glc
# Procedure, shortened: as §1
binder,measurement,setting,value
B1,glycan array binding signal (z-score),Gal3S(b1-4)Glc6S,0.672
same,glycan array binding signal (z-score),Gal3S(b1-4)GlcNAc,0.745
same,glycan array binding signal (z-score),Gal3S(b1-4)GlcNAc6S,0.979
same,glycan array binding signal (z-score),[1],-0.01
same,glycan array binding signal (z-score),[2],-0.178
same,glycan array binding signal (z-score),[3],-0.502
same,glycan array binding signal (z-score),[4],2.69
same,glycan array binding signal (z-score),Gal3S4S(b1-4)GlcNAc,1.89
same,glycan array binding signal (z-score),Gal3S6S(b1-4)GlcNAc,0.1
same,glycan array binding signal (z-score),Gal3S6S(b1-4)GlcNAc6S,-0.199
same,glycan array binding signal (z-score),Gal4S(b1-4)GlcNAc,-0.247
same,glycan array binding signal (z-score),Gal4S6S(b1-4)GlcNAc,0.046
same,glycan array binding signal (z-score),Gal6P(b1-4)GlcNAc,-0.332
same,glycan array binding signal (z-score),Gal6S(b1-3)GlcNAc,-0.455
same,glycan array binding signal (z-score),Gal6S(b1-3)GlcNAc6S,-0.324
same,glycan array binding signal (z-score),Gal6S(b1-4)Glc,-0.195
same,glycan array binding signal (z-score),Gal6S(b1-4)Glc6S,-0.089
same,glycan array binding signal (z-score),Gal6S(b1-4)GlcNAc,-0.395
same,glycan array binding signal (z-score),Gal6S(b1-4)GlcNAc6S,-0.311
same,glycan array binding signal (z-score),GalNAc(a1-3)Gal,-0.163
same,glycan array binding signal (z-score),GalNAc(a1-3)GalNAc,-0.241
same,glycan array binding signal (z-score),[5],-0.329
same,glycan array binding signal (z-score),[6],-0.428
same,glycan array binding signal (z-score),[7],-0.419
same,glycan array binding signal (z-score),GalNAc(b1-3)Gal,-0.328
same,glycan array binding signal (z-score),[8],-0.41
same,glycan array binding signal (z-score),[9],-0.372
same,glycan array binding signal (z-score),[10],-0.278
same,glycan array binding signal (z-score),GalNAc(b1-3)GalNAc,0.038
same,glycan array binding signal (z-score),GalNAc(b1-3)GlcNAc,-0.343
same,glycan array binding signal (z-score),GalNAc(b1-4)Gal(b1-4)Glc,-0.088
same,glycan array binding signal (z-score),GalNAc(b1-4)GlcNAc,-0.332
same,glycan array binding signal (z-score),[11],-0.303
same,glycan array binding signal (z-score),[12],-0.127
same,glycan array binding signal (z-score),[13],-0.415
same,glycan array binding signal (z-score),GalNAc(b1-4)GlcNAc6S,-0.452
same,glycan array binding signal (z-score),GalNAc(b1-6)GalNAc,-0.395
same,glycan array binding signal (z-score),GalNAc3S(b1-4)GlcNAc,-0.413
same,glycan array binding signal (z-score),GalNAc3S(b1-4)GlcNAc3S,-0.244
same,glycan array binding signal (z-score),[14],-0.454
same,glycan array binding signal (z-score),GalNAc4S6S(b1-4)GlcNAc,-0.26
same,glycan array binding signal (z-score),GalNAc6S(b1-4)GlcNAc,-0.484
same,glycan array binding signal (z-score),Glc(a1-4)Glc,-0.341
same,glycan array binding signal (z-score),[15],-0.076
same,glycan array binding signal (z-score),Glc(a1-6)Glc(a1-6)Glc,-0.157
